Screen size: about 48,000 compounds; about 1,200 (2.5%) were called active. Another 2% or so got no clear call; they are omitted.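 How the source made its calls: active means activation of at least 60% and not above a set upper limit (about 1 call in 100 departs from these limits); inconclusive means activation of 40% to 60%, or above that upper limit; inactive means activation under 40%.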 Some of the results follow.

Sequence of UniProt O75388 (O75388 whole entry, looked up): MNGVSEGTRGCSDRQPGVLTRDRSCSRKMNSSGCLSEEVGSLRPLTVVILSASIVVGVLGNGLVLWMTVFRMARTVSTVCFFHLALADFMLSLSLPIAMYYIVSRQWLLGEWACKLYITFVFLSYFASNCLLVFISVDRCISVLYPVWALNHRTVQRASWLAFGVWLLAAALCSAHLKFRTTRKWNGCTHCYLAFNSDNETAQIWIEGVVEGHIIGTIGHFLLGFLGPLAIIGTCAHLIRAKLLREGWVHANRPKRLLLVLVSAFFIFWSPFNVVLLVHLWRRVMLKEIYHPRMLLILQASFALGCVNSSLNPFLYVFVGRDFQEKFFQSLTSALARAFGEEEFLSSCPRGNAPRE

For this assay, the target named is Probable G-protein coupled receptor 32 (Homo sapiens) (UniProt O75388). The assay can be described thus: qHTS for Agonists of Human Resolvin D1 Receptor DRV1. Further: 0% is about no effect. The note with it: CHO-K1 GPR32 beta-arrestin PathHunter luminescence, 90 min; at 76.9 µM; hits give high values; zero percent set by DMSO-only wells. In a few lines:
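Luminescent readout of beta-Gal complementation quantifies ligand-induced beta-arrestin association with GPR32 in CHO-K1 cells; 90 min compound incubation at 37 °C, detection 1 h at room temperature.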
(In general: In qHTS, concentration-response curves come from the screen itself.)
For the compound `CCCNC(=O)c1cnc2sc(N3CCCCC3)nn2c1=O`, the activation is inactive: 9.49%.

Turning to `Cc1cn2c(=O)cc(COc3ccccc3NC(=O)c3ccccc3C)nc2s1`, the activation is inactive: 3.56%.

On to `Cc1ccc(-c2csc(/C(C#N)=C/c3ccccc3Cl)n2)cc1`, for which the activation was inactive: -14.8%.

On to `O=C(NCc1cccc(F)c1)C1CCN(C(=O)c2sccc2-n2cccc2)CC1`, for which the activation was inactive: -4%.

In the case of `O=C(Nc1cc(NC(=O)c2ccccc2Cl)ccc1Cl)c1ccccc1`, the activation was inactive: -16.8%.

On to `CCOc1ccccc1CNC(=O)c1ccc2nc(Cc3ccc(OC)cc3)oc2c1`, for which the activation was inactive: -2.74%.

Consider `Cc1cc(C)cc(OCC2CNC(=O)O2)c1` (stereo not drawn), for which the activation was inactive: 4.68%.

As for `CCOCCCNC(=O)NC(CCC(C)C)c1c(-n2cccc2)sc2c1CCN(C)C2` (stereo not drawn), the activation was inactive: -25.1%.

As for `CCc1ccc(NC(=O)CSc2cn(CC(=O)N3CCCC3)c3ccccc23)cc1`, the activation was inactive: 9.59%.

Turning to `COc1ccc(N2CCN(C(=O)CCNS(=O)(=O)c3ccc4c(c3)CCN4C(=O)C3CC3)CC2)cc1`, the activation was inactive: 20.2%.

With `COc1ccc(CNC(=O)c2ccc(Cn3c(=O)c4cccn4c4cccnc43)cc2)cc1OC`, the activation is inactive: -7.59%.

Take `O=c1c2sc3ccccc3c2n(Cc2cccc(C(F)(F)F)c2)c(=O)n1Cc1ccco1`: the activation was inactive: -2.57%.

`CN1CCN(CCCNC(=O)c2cnn(-c3ccccc3)c2-n2cccc2)CC1`: the activation was inactive: 12.7%.

For `CC(C)(C)C(=O)CSc1nc2ccsc2c(=O)n1Cc1ccccc1F`, the activation is inactive: -37.1%.

Take `Cc1ccc(C)c(-c2nc(Cn3c(=O)cc(-c4ccccc4)c4c(C)nn(C)c43)c(C)o2)c1`: the activation is inactive: -9.81%.

With `CC(C(O)c1ccccc1)N(C)CCOC(c1ccccc1)c1ccccc1` (stereo not drawn), the activation was inactive: 29.5%.

For the compound `CCCOc1ccc(C(=O)Nc2cc(-c3nc4cc(C)cc(C)c4o3)ccc2C)cc1`, the activation is inactive: 37.1%.

With `CN1C(=O)c2ccccc2Sc2ccc(NC(=O)N3CCN(c4ccccc4F)CC3)cc21`, the activation was inactive: -4.62%.

Consider `Clc1ccc(CCNC(c2nnc(-c3ccccc3)o2)c2ccccc2Cl)cc1` (stereo not drawn), for which the activation is inactive: -36.5%.

Consider `CC(C)NC(=O)C1CCN(C(=O)N2CCOc3ccc(Cl)cc32)CC1`, for which the activation was inactive: -14%.

On to `Cc1ccc(-c2noc(-c3ccc(N4CCCCC4)c([N+](=O)[O-])c3)n2)cc1`, for which the activation is inactive: 3.14%.

Turning to `CNC(=O)COc1ccc(NC(=O)c2ccc(-c3nn(C)c(=O)c4ccccc34)cc2)cc1`, the activation is inactive: 25.4%.

For `CCn1c(SCc2ccccc2Cl)nc(=O)c2c(C(=O)OC)cc(C3CC3)nc21`, the activation was inactive: -5.34%.

On to `COc1cc(-c2noc(-c3cc(C(C)C)[nH]n3)n2)cc(OC)c1OC`, for which the activation was inactive: -11.2%.

On to `Cc1cc(C)c2c(-n3cccc3)c(C(=O)NCCCN3CCCCC3C)sc2n1` (stereo not drawn), for which the activation is inactive: -12.7%.

With `O=C(O)[C@H](O)[C@@H](O)[C@H](O[C@@H]1O[C@H](CO)[C@H](O)[C@H](O)[C@H]1O)[C@H](O)CO`, the activation was inactive: -3.03%.

`CC(=O)Nc1nonc1-c1nnc(SCc2ccc(Cl)cc2)n1C`: the activation is inactive: -3.83%.

Turning to `CCOC(=O)c1c(NC(=O)c2cc(=O)c3c(C)cc(C)cc3o2)sc(C(C)=O)c1C`, the activation is inactive: 5.71%.

As to `Cc1nn(S(=O)(=O)c2ccc(Cl)cc2)c(C)c1S(=O)(=O)N1CCCCCC1`, the activation was inactive: -7.08%.

Consider `CCc1cccc(CC)c1NC(=O)Cn1nnc2sc(-c3ccccc3)cc2c1=O`, for which the activation is inactive: 20.4%.

Regarding `COc1ccc(N2CCN(C(CNC(=O)CC(C)C)c3ccc4c(c3)OCO4)CC2)cc1` (stereo not drawn), the activation was inactive: -27.8%.

As to `CCCCOc1ccc(C2=NC(c3ccncc3)=Nc3ccc(Br)cc3N2)cc1`, the activation was inactive: -41.8%.

Consider `Cc1ccc(-c2nc3ccc(Cl)cn3c2Nc2ccc3c(c2)OCCO3)o1`, for which the activation was inactive: -24.2%.

On to `COc1ccc(-c2nc(CS(=O)CC(=O)NCc3ccc(F)cc3)c(C)o2)cc1OC` (stereo not drawn), for which the activation was inactive: -7.68%.

Regarding `Cc1c(Cl)cccc1-n1ncc(C(=O)N2CCc3ccccc3C2)c1C1CCN(C(=O)OC(C)(C)C)CC1`, the activation was inactive: -9.16%.

Regarding `COc1ccc(OCC(=O)Nc2ccc(C(=O)OCc3cc(=O)n4nc(C)sc4n3)cc2)cc1`, the activation was inactive: 9.12%.

For the compound `CCCCCC(=O)O[C@]1(C(C)=O)CC[C@H]2[C@@H]3CCC4=CC(=O)CC[C@]4(C)[C@H]3CC[C@@]21C`, the activation is inactive: -4.27%.

As for `CCOc1ccccc1N(CC)C(=O)Nc1cn(C)c(=O)c2ccccc12`, the activation is inactive: -18.8%.

With `CCCCCn1c(=O)[nH]c2cc(C(=O)N3CCN(c4ccccc4)CC3)ccc2c1=O`, the activation was inactive: 26.5%.

In the case of `Oc1cc2c(cc1O)CN(C(=S)NCCc1ccc(Cl)cc1)CCC2`, the activation is inactive: 7.6%.

Regarding `Cc1ccc(/C=C/c2onc(C)c2S(=O)(=O)N2CCC(C(=O)N3CC(C)Oc4ccccc43)CC2)cc1` (stereo not drawn), the activation is inactive: -24.1%.

Take `CCc1ccc(NC(=O)CC2C(=O)N(c3cccc(OC)c3)C(=O)N2Cc2ccco2)cc1` (stereo not drawn): the activation is inactive: -5.22%.

For `CCOc1ccccc1NC(=O)Nc1nnc(N(C)Cc2ccccc2)s1`, the activation is inactive: -5.92%.

In the case of `Cc1ccc(NC(=O)c2oc3ccccc3c2NC(=O)Cc2cccs2)cc1`, the activation is inactive: 14.6%.

`COc1ccc2c(c1)cc1c(=O)n(CC(=O)NC3CCCCC3)nc(C)n12`: the activation is inactive: 7.57%.

As to `COc1cc(Cl)c(NS(=O)(=O)c2ccc3c(c2)CC(C)N3C(=O)C2CCC2)c(OC)c1` (stereo not drawn), the activation is inactive: 7.56%.

Take `CC(=O)N1CCC(N(C(=O)Nc2ccc(C)c(F)c2)C(C)C)CC1`: the activation is inactive: -5.87%.

For the compound `COc1ccccc1NC(=O)CCS(=O)(=O)c1ccc2nc(C)sc2c1`, the activation is inactive: -10.7%.

For the compound `CCCCCCC(=O)OC1CC(C)(C)NC(C)(C)C1`, the activation is inactive: -1.68%.

As for `CCc1c(C)sc2c1CCN(C(=O)Nc1ccccc1C(F)(F)F)C2c1ccccc1` (stereo not drawn), the activation is inactive: 21.1%.

`Cc1ccccc1NC(=O)c1c(NC(=O)C(C)Oc2cccc(Cl)c2)sc2c1CCCC2` (stereo not drawn): the activation was inactive: -12.9%.

Take `COc1cc(Cl)c(C)cc1NC(=O)CCc1c(C)nc2cc(-c3cccc(F)c3)nn2c1C`: the activation is inactive: -1.83%.

With `CCn1c(C(=O)N2CCCC(C(=O)NCCCOC)C2)cc2sccc21` (stereo not drawn), the activation is inactive: -2.61%.

For `O=C(CCn1cnc2onc(-c3ccc(F)cc3)c2c1=O)N1CCN(c2ccc(F)cc2)CC1`, the activation is inactive: 4.32%.

Turning to `Cc1cccc(NC(=O)C2CCCN(S(=O)(=O)c3cccc4nonc34)C2)c1C` (stereo not drawn), the activation was inactive: -11%.

As to `CCN1CCC(N(Cc2ccc3c(c2)OCO3)C(=O)Nc2cc(Cl)ccc2C(=O)OC)CC1`, the activation was inactive: 4.61%.

As for `Cc1cc(C(=O)O)c2c(=O)n(C)c(=O)n(C)c2n1`, the activation was inactive: 4.99%.

As to `COc1ccc(-c2cn3c(n2)sc2cc(C(=O)NC4CCCc5ccccc54)ccc23)cc1` (stereo not drawn), the activation is inactive: -6.38%.

On to `CCCOC(=O)c1c(C)oc2c1cc(NS(=O)(=O)c1ccc(OCC)cc1)c1ccccc12`, for which the activation was inactive: 0.447%.

Take `COc1cc2c(cc1NC(=O)COc1cc(C)ccc1C)oc1ccccc12`: the activation was inactive: -11.9%.

In the case of `Cc1cc2oc(=O)c(CC(=O)NCCc3ccccc3)c(C)c2c2occ(C(C)(C)C)c12`, the activation was inactive: -24.1%.

For the compound `Cc1cccc(N2CCN(C(=O)c3cn(C4CCCCC4)c(=O)c4c3c3ccccc3n4C)CC2)c1C`, the activation was inactive: -27.4%.

`CCCCN(C)CCCNC(=O)c1ccc2nc(N3CCCCC3)sc2c1`: the activation is inactive: 4.66%.

In the case of `CCN(C(=O)CCc1nc(-c2ccc(C)cc2)no1)c1cc(C)ccc1C`, the activation is inactive: -23.2%.

As to `Cc1cccc(OCCSc2nc3ccccc3n2CC(=O)N2CCCCC2)c1C`, the activation was inactive: -24.2%.

In the case of `CCN(Cc1ccccc1)Cc1c(O)ccc2c(=O)c(-c3ccccc3OC)c(C(F)(F)F)oc12`, the activation was inactive: -1.09%.

For the compound `CC(=O)Nc1nonc1-c1nnc(SCC(=O)Nc2ccc(F)cc2F)n1-c1ccccc1`, the activation was inactive: -15.1%.

With `Cc1ccc(Cn2c(CNS(=O)(=O)c3c(C)cc(C)cc3C)nc3cccnc32)cc1`, the activation was inactive: -25.3%.

Regarding `Cc1c(C)n(Cc2ccccc2)c2ccc(C(=O)NC(C)c3ccccc3)cc12` (stereo not drawn), the activation is inactive: -18.1%.

For the compound `Cc1cc(Cn2cnc3c2C[C@@H](C(=O)O)N(C(=O)C(c2ccccc2)c2ccccc2)C3)ccc1N`, the activation is inactive: 5.65%.

Consider `CCOC(=O)c1ccc(N2CCN(c3cc(Cl)ccc3C)CC2)c(NC(=O)Nc2cccc(OC)c2)c1`, for which the activation is inactive: -6.05%.

On to `CCOCCCNC(=O)C1CCCN(Cc2nc(-c3ccc(CC)cc3)oc2C)C1` (stereo not drawn), for which the activation is inactive: 40.5%.

On to `COc1ccc(N2CC(NC(=O)/C=C\c3ccc(OC)c(OC)c3)CC2=O)cc1` (stereo not drawn), for which the activation is inactive: -13.4%.

Consider `CCc1ccc(-n2c(SC(CC)C(=O)N(CC)CC)nc3n[nH]c(C)c3c2=N)cc1` (stereo not drawn), for which the activation was inactive: 0.121%.

On to `Cc1nc(CC(=O)Nc2ccc(C)c(C)c2)cs1`, for which the activation was inactive: -7.4%.

Take `CCOC(=O)N1CCN(S(=O)(=O)N2CCCC(C(=O)NCc3cc(OC)ccc3OC)C2)CC1` (stereo not drawn): the activation was inactive: -5.38%.

`CCc1ccc(OCC(=O)N(Cc2cccs2)c2ccc(Cl)cc2)cc1`: the activation is inactive: 9.72%.

As for `CCn1ccc2cc(S(=O)(=O)N3CCCN(C(=O)Nc4ccccc4OC)CC3)ccc21`, the activation is inactive: -4.63%.

With `CCCS(=O)(=O)c1ncc(Cl)c(C(=O)N2CCN(c3ccc(OC)cc3)CC2)n1`, the activation is inactive: -20.2%.

As to `Cc1ccc(-c2cc(C(=O)NC(C)c3ccccc3)c3ccccc3n2)cc1C` (stereo not drawn), the activation is inactive: -6.24%.

On to `CC(=O)Nc1ccccc1-c1nc2ccccc2n(CC(=O)c2ccc(C)c(C)c2)c1=O`, for which the activation is inactive: -12.2%.

For the compound `CCC(CC)C(=O)Nc1ccc(OCc2cc(=O)n3ccsc3n2)cc1`, the activation is inactive: -10.2%.

As to `Cc1ccc2ncc(C(=O)NCc3ccccc3Cl)c(=O)n2c1`, the activation was inactive: 1.25%.

The values above are taken from PubChem BioAssay AID1346428 (National Center for Advancing Translational Sciences (NCATS), 2018).
